The values below come from paper PMC12040169 (PLOS Biology, 2025).

This is one part of the list.

In the test the test system is T1, C. trachomatis L2/434/Bu expressing GFP (CTL2-GFP).
T1 construct: L2/434/Bu GFP intracellular growth in HeLa cells
Set-up: species or system HeLa; C. trachomatis total inclusion area by high-content imaging, normalised to DMSO. Particulars: total inclusion area; 28.5 h, 10 µM; inhibitor. In a few lines:
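Bulk GFP and resorufin signals were read first. Wells were then fixed, stained with Hoechst and imaged to detect GFP inclusions and host nuclei. MICs followed the previously described calculation.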
For the compound `COc1cc(Cl)nnc1Cl` [CBK018956], the “% of control remaining” value came out at 91.3874.

Regarding `O=C(O)c1ccc(Cl)c(S(=O)(=O)NCc2ccco2)c1` [CBK304575], the “% of control remaining” value is 84.1904.

With `CC(Cc1nc(-c2cnn(C)n2)cs1)n1cc(Cl)cn1` (stereo not shown) [CBK304256], the “% of control remaining” value was determined as 87.8047.

As for `CCOC(=O)C(CNC(=O)c1c(C)nn(C)c1C)Cc1ccccc1` (stereo not shown) [CBK305276], the “% of control remaining” value was found to be 64.7386.

In the case of `CC(=O)Nc1ccc(CNc2nnc(C3CCCCC3)o2)cc1` [CBK306427], the “% of control remaining” value is reported as 49.4992.

`Cc1cc(/C=C2\SC(=O)N(CC(=O)Nc3ccccc3F)C2=O)c(C)n1-c1cccnc1` [CBK264770]: the “% of control remaining” value was determined as 96.6066.

Take `CCN(CC)c1c(C)nc2ccc(C(=O)Nc3cc(-c4ccccc4)ccc3OC)cn12` [CBK145980]: the “% of control remaining” value is given as 79.8965.

In the case of `CC(=O)c1cc(C(=O)Nc2ccc(NC(=O)C(=O)O)cc2)oc1C` [CBK264011], the “% of control remaining” value is 123.287.

As for `COc1ccc(-c2cc(C(=O)N3CCN(C(C)=O)CC3)cnc2-c2ccccc2)cn1` [CBK036637], the “% of control remaining” value turned out to be 143.396.

As to `COc1ccc2c(c1)CCN=C2C[C@H]1CN(C(=O)NC(C)C)CC[C@H]1CC(=O)O` [CBK289156], the “% of control remaining” value is 85.4027.

As to `Nc1nonc1-n1nnc(CN2CCCCC2)c1CN1CCCCC1` [CBK270636], the “% of control remaining” value is recorded as 38.0472.

`Cc1[nH]c2ccc(F)cc2c1CC(=O)N(C)CCN(C)C` [CBK282726]: the “% of control remaining” value was determined as 133.564.

For `COc1ccc(-n2ncc(CN(C)C)n2)cc1OC` [CBK112862], the “% of control remaining” value is reported as 83.2323.

With `O=C(O)COc1ccc(NC(=O)c2ccc3c(c2)C(=O)N(CC2CCCO2)C3=O)cc1` (stereo not shown) [CBK263719], the “% of control remaining” value worked out at 99.9776.

For the compound `CCCC(CCC)NC(=O)c1ccc(-n2nc(C(=O)OCC)c(Cl)c2C)cc1` [CBK114323], the “% of control remaining” value is 85.4958.

Take `Cc1ccc(NCc2nc3ccccc3n2Cc2ccccc2)cc1C` [CBK263756]: the “% of control remaining” value was 89.25.

For the compound `CC(=O)N(C)c1ncc(Br)cc1C(=O)NCC1COc2ccccc2O1` (stereo not shown) [CBK076558], the “% of control remaining” value is given as 95.6738.

Regarding `CC(C)CC(=O)N1CCc2c([nH]c3ccccc23)C12CCN(Cc1ccccc1)C2` (stereo not shown) [CBK059459], the “% of control remaining” value stood at 79.6818.

As to `CCc1noc(C)c1C(=O)N1CCC(NC)C1` (stereo not shown) [CBK304299C], the “% of control remaining” value is recorded as 30.5786.

For `Cc1ccc(C(=O)Nc2cccc(OC(=O)c3cc(S(=O)(=O)N4CCCCC4)ccc3Cl)c2)cc1` [CBK261368], the “% of control remaining” value is given as 51.5012.

On to `CC1CCC(N2CCN(Cc3ccccn3)CC2)CC1` (stereo not shown) [CBK263473], for which the “% of control remaining” value is listed as 102.474.

Take `Oc1ccc(Nc2ncnc3scc(-c4ccccc4)c23)cc1` [CBK269146C]: the “% of control remaining” value came out at 105.457.
